The other results are listed elsewhere or left out. At the low end of the ranking the order means little.
target: MAX:MAX (p21) (UniProt P61244-2); assay: protein-binding microarray (anti-MAX antibody); settings: PBM: 15 mM Tris-HCl pH 7.5, 100 mM KCl, 0.075% NP40, 7.5 mM beta-mercaptoethanol, 375 ng/ul BSA, 8 ng/ul poly(dA-dT):(dA-dT), 550 ng complex, 60 min, room …; high values mean tight binding; double strand, one strand shown; sequences stand for … in CCGGC…TTAATAGCTAAGATTACTATATCGACG

| Sequence | binding signal (log2 normalized fluorescence) |
| --- | --- |
| TGCAGCGTGGTA | 2.94 |
| TGAGTTAAAGTA | -1.16 |
| TGACTCCGGGTA | -0.571 |
| TGAGAAGGTGTA | -0.154 |
| TGACAGTCCGTA | -0.424 |
| TGATAGCGAGTA | -0.413 |
| TTGAACGTGGTA | 2.54 |
| TGACACGTAGAG | 0.996 |
| TGATCCCTCGTA | -0.795 |
| TGTCACTTGATA | 0.114 |
| TGAGAGATAGTA | -1.27 |
| TGAATAAATGTA | -0.629 |
| TGACGGCTAGTA | -0.611 |
| TGACCATTTGTA | -0.111 |
| TGACCGTTGGTA | -0.411 |
| TGACAGAATGTA | 0.397 |
| TGAGCCGCCGTA | -1.1 |
| GTCCACGTGGTA | 3.64 |
| TGACCGCGTGTA | 3.4 |
| CGACCCGGGGTA | -0.203 |
| TGAAGTGGGGTA | 0.195 |
| TGAGGGTAAGTA | -0.683 |
| TGAACCCAAGTA | -0.182 |

| Sequence | binding signal (log2 normalized fluorescence) |
| --- | --- |
| TGAAGAGTCGTA | -1 |
| TGAGAGCAGGTA | -0.436 |
| TGATGACCTGTA | 0.612 |
| TGAGTAACGGTA | -0.914 |
| TGATTACAGGTA | -0.614 |
| TGAGTCTCCGTA | -1.17 |
| TGAAGATCTGTA | -0.94 |
| TGAGGATCTGTA | -1.03 |
| TGAGACGTAGTA | -0.907 |
| TGAGTTGTGGTA | -0.427 |
| TGATAGTGGGTA | -0.372 |
| TGATACGAGGTA | -0.483 |
| TGATCGGTCGTA | -1.05 |
| CGGCACGTGGTA | 3.27 |
| TGCCAAGTGGTG | 0.331 |
| TGAAATGTGATA | 1.72 |
| TGACGCGTCGTA | 0.345 |
| TGAGCTTGCGTA | -0.291 |
| TGATACCCAGTA | -0.866 |
| TGAAGTGAAGTA | -0.601 |
| TGATTGGGGGTA | 1.36 |
| TGACACGCGGTG | 2.96 |
| TGAATGCAGGTA | 0.426 |

| Sequence | binding signal (log2 normalized fluorescence) |
| --- | --- |
| TGAGGTCATGTA | -0.0101 |
| TGAATAACTGTA | -0.688 |
| AGACAAGTGCTA | 1.21 |
| TGAACTGGGGTA | -0.27 |
| TAAAACGTGTTA | 3.23 |
| TGAACAGAGGTA | -0.661 |
| TGAGATCAGGTA | -0.456 |
| TGAAAGACTGTA | -0.564 |
| TGATGTATTGTA | -0.0683 |
| TGAGTCCGTGTA | -0.36 |
| TGAGGCGCTGTA | -0.414 |
| TCACCCGTGATA | 2.13 |
| TGAGCTGTCGTA | -0.577 |
| TGACATATCGTA | -0.0327 |
| TGATCTATTGTA | -1.22 |
| TGACACGCGATA | 2.93 |
| AGACACGTGGTC | 3.43 |
| TGAGCACAAGTA | 0.993 |
| TGGCCCGTGGGA | 1.32 |
| TGCCACGACGTA | 1.79 |
| AGCGGGTCGCAC | 1.5 |
| TGAGGCTCGGTA | -0.792 |
| TGTGACGTGGTA | 1.45 |

| Sequence | binding signal (log2 normalized fluorescence) |
| --- | --- |
| TGAGACCCCGTA | -0.406 |
| TGACATGGAGTA | 0.821 |
| AGACACGTGATC | 3.05 |
| TGACGACGGGTA | -0.453 |
| TGACGTAATGTA | -0.411 |
| TGACGAAGAATC | -0.78 |
| TGAGTTACTGTA | -1.15 |
| TGATTTAACGTA | -0.722 |
| TGACAGCTAGTA | -0.629 |
| TGAAAGGACGTA | -0.333 |
| TGAGATGTTGTA | -0.642 |
| TGAAGTCACGTA | 0.658 |
| TGACGCTCTGTA | -0.348 |
| AGGTTTCACCGG | 0.535 |
| TGAAACGCTGTA | 0.387 |
| TGAACGCATGTA | 2.88 |
| TGAGTGTTCGTA | 0.177 |
| TGAAATGAGGTA | 0.744 |
| TGAACTAGAGTA | -0.827 |
| TGTCACCGGGTA | 0.511 |
| TGAGAGCATGTA | 2.11 |
| TGACACTTAGTA | -0.364 |
| TGATGTACGGTA | -0.0815 |

| Sequence | binding signal (log2 normalized fluorescence) |
| --- | --- |
| TGACACGTGATA | 3.05 |
| TGACACAAAGTA | -0.0109 |
| TGACTCGAGGTA | 0.974 |
| TGCCACTTGGTT | 0.371 |
| TGAGCGGGCGTA | -0.433 |
| TGAATCCTCGTA | -0.584 |
| TGATCACGGGTA | 1.61 |
| TGAGTCGTAGTA | -1.28 |
| AGCCACGTTGTA | 3.25 |
| TGACACGGAGTA | 0.609 |
| TGAGCGGCGGTA | -0.806 |
| TGAGTAGGTGTA | -0.861 |
| TGAGGATATGTA | -0.92 |
| TGAGACGCCGTA | -0.749 |
| TGACACGCTGTT | 3.08 |
| TTACACGTGGTG | 3.07 |
| TGAAGTTCGGTA | -0.962 |
| TGATGCATAGTA | -0.0981 |
| TGACACGTCATA | 1.39 |
| TGAAAGTATGTA | 0.0414 |
| TGATTTGTAGTA | -1.16 |
| TGAGTTGCTGTA | -0.63 |
| TGAGAAACGGTA | -0.778 |

| Sequence | binding signal (log2 normalized fluorescence) |
| --- | --- |
| TGACACCTGATC | 2.25 |
| TGATTACGGGTA | -0.738 |
| TGAACCCATGTA | 1.48 |
| TGCTACGTAGTA | -0.764 |
| TGATGTCCAGTA | -0.249 |
| TGACACATGGTA | 3.15 |
| TGATCCAGGGTA | -0.85 |
| TGAGACTCTGTA | -0.979 |
| TGAAAGATGGTA | -0.31 |
| TGACATGGCGTA | 1.13 |
| CGACCTGTGGTA | 0.668 |
| TGATGAAACGTA | -0.297 |
| TGACAACGCGTA | 0.927 |
| TGAGTTTCTGTA | -1.21 |
| TCACCCATGGTA | 2.35 |
| TGAGTAGCAGTA | -1.21 |
| TGAAGTGTAGTA | -0.529 |
| TGACTTACCGTA | -0.339 |
| TGACCCTGAGTA | -0.307 |
| TGAACGTGAGTA | 1.43 |
| TGAGGCGGTGTA | -0.63 |
| TGACGCTTTGTA | -0.559 |

— PMC5515408
